Assay results taken from the BET-seq Pho4 binding data (Le et al. 2018).
The other results are listed elsewhere or left out. These are noisy estimates, calculated here from bound and input reads.

target: T1, Pho4 (S. cerevisiae) (UniProt P07270); assay: relative binding free energy (BET-seq); higher = weaker binding; details: reference: library average
T1 sequence: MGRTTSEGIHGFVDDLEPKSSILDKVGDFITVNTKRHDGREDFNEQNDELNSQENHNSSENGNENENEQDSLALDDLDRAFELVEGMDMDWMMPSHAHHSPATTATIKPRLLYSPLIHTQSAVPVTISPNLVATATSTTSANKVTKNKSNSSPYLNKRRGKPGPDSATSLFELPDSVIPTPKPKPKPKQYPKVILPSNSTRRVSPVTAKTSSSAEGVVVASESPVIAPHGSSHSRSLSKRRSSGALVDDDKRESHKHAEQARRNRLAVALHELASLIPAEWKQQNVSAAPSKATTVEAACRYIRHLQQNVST

Sequence | relative binding free energy [kcal/mol]
AAATTCACGTGGTGTT | 0.36
TGTGGCACGTGGTTCA | -0.1
TGTGGCACGTGCTCGG | -0.25
TACGGCACGTGGGGTC | -0.14
GTTTTCACGTGCGGGG | 0.32
AGGTTCACGTGTGTTT | 0.27
TGTTACACGTGGCTTG | -0.11
GGTTTCACGTGTCTTC | 0.46
GTTTACACGTGCGTCG | 0.09
CGGAACACGTGTGTGT | -0.05
ATTTTCACGTGAGACT | 0.53
GGTCGCACGTGATTGA | 0.18
TATTTCACGTGTCGTC | 0.23
GTTTACACGTGGGGTT | 0.01
AGTTACACGTGAAAGG | 0.34
GCATACACGTGGTTGG | -0.03
AGTTGCACGTGGGAGG | -0.07
TTAAACACGTGTGATA | 0.07
GTTCACACGTGAGGAT | 0.5
TAGTACACGTGTAGTC | 0.15
GTCAACACGTGGGGAA | -0.04
GAGGGCACGTGGATAG | -0.12
TTGGGCACGTGAGAGA | 0.17
ATATACACGTGATGTT | 0.04
AGAAGCACGTGGGTTA | -0.07
ATAAGCACGTGTTTTT | -0.04

Sequence | relative binding free energy [kcal/mol]
GGTGTCACGTGAGGCG | 0.29
GGAGGCACGTGGGGAT | -0.15
GTGTTCACGTGTTTAC | 0.31
CATGGCACGTGATATG | -0.04
AGTAGCACGTGGGGAG | -0.25
TGGGTCACGTGGACAG | 0.05
AAGGACACGTGCGGGG | -0.08
TCTATCACGTGTGCGT | 0.21
GGTTACACGTGGTCAT | -0.03
GTGATCACGTGACGGT | 0.3
TCAGGCACGTGCGGTG | -0.26
GTTTTCACGTGGTCCG | 0.28
TTTATCACGTGCACGT | 0.14
TAGGTCACGTGATGAA | 0.28
GGGCTCACGTGGCAGT | 0.38
TCGGACACGTGTTTTG | -0.03
TTGTACACGTGTCGGC | 0.22
TGCTCCACGTGGGAGG | 0.06
CTGTACACGTGTCGGG | 0.26
CAAGACACGTGTGGTG | -0.07
TTTGTCACGTGAGTGT | 0.29
TATGTCACGTGGGAGC | -0.04
GCAGGCACGTGGGTTA | -0.27
TGGTTCACGTGGGTAT | 0.21
TTAGCCACGTGATGTG | -0.01
TACAGCACGTGGGAGT | -0.22

Sequence | relative binding free energy [kcal/mol]
TTAGCCACGTGTATAT | 0.04
AGTGACACGTGTGGTT | 0.07
TTAGACACGTGGCGGG | -0.06
GCCGTCACGTGTGGTT | 0.29
TAAGTCACGTGGATTG | 0.06
TTGGGCACGTGCTTTA | -0.17
ATATTCACGTGTGTCG | 0.22
GTAAACACGTGATGTG | 0.16
TTGATCACGTGTTTTC | 0.03
ACCGGCACGTGTAGTG | 0.01
GCAAACACGTGGGGTT | -0.14
GTCGTCACGTGGCGTG | 0.04
GAGGACACGTGAGCGG | 0.17
TTAGGCACGTGGAGCT | -0.12
TAATTCACGTGGGCTA | 0.16
CAGGTCACGTGCGTTT | 0.01
GGATCCACGTGTGTGT | 0.17
ATTCGCACGTGGATAT | 0.05
AGCGGCACGTGAGGTT | 0.2
AGTTGCACGTGGTTGT | -0.07
CATGCCACGTGAGGGG | 0.04
AATAGCACGTGATAGT | -0.05
TTCTCCACGTGGGTTA | -0.03
GTCAACACGTGTTTTT | 0.13
CTTTTCACGTGTTGCT | 0.16
TCCATCACGTGGGGGG | -0.13

Sequence | relative binding free energy [kcal/mol]
TATGTCACGTGCATAG | 0.05
TTATTCACGTGTTGTG | 0.27
GGTGGCACGTGACAGT | 0.05
CTTTGCACGTGATGTT | 0.05
TTTACCACGTGGAGTG | -0.1
GGGAGCACGTGAGGCT | 0.09
TGTTACACGTGCATGT | 0.1
CAGGTCACGTGGTTAA | 0.2
TCGTTCACGTGTTCTG | 0.49
GCCGGCACGTGTGTTT | 0.01
TGGGTCACGTGCTAGT | -0.01
CATTGCACGTGGGTAA | -0.06
TGTTCCACGTGGCGTT | 0.03
TGGGGCACGTGTCATT | -0.22
GAGGTCACGTGCGGTC | 0.06
AATGACACGTGTGTGC | 0
GTAGACACGTGGGGAC | -0.06
GATATCACGTGTCGGG | 0.2
AATGACACGTGGTCGG | 0.01
TTTGACACGTGTGATT | 0.11
AAATGCACGTGAGTAT | 0.22
AGGGACACGTGAAATG | 0.17
CGATACACGTGAAGGT | 0.63
GACTGCACGTGGGTTA | -0.16
TGTTACACGTGGGACT | -0.04
TGTTCCACGTGTGTTT | 0.07

Sequence | relative binding free energy [kcal/mol]
TTAGGCACGTGCTCTG | -0.23
TAGTCCACGTGATGTA | 0.31
GTGAACACGTGGATTT | 0.01
GGCATCACGTGAGGTG | 0.22
AATGGCACGTGGGATA | -0.06
GGAGTCACGTGTCTTG | 0.14
TGGGCCACGTGGGTTA | -0.09
CGAGGCACGTGTAGGT | -0.05
GGGACCACGTGGCGGG | -0.03
GTGGTCACGTGTAGCA | 0.13
GGGTCCACGTGATAAG | 0.4
GTAGACACGTGTTAGA | 0.08
ATTTACACGTGGGATG | 0
AAGAACACGTGATGGT | 0.17
TCTGTCACGTGGTGCT | 0.1
TTTACCACGTGAGTTG | 0.18
TGGCGCACGTGCGTGT | -0.12
GCTGACACGTGTAGTG | 0.04
GAGTACACGTGGAGTA | 0.07
ATAAACACGTGATGTT | 0.09
GATTGCACGTGAGGGG | 0.37
TAGTGCACGTGAGAGC | 0.35
CGGGGCACGTGTTCTG | -0.24
AGTTCCACGTGGGGAG | -0.08
CGTTTCACGTGATAGT | 0.3
AGAGTCACGTGGAATG | 0.22

Sequence | relative binding free energy [kcal/mol]
CTCGGCACGTGGGGAA | -0.18
TTCATCACGTGGTTGA | 0.12
AAGGGCACGTGTCGTG | -0.08
GGGAACACGTGGATGA | 0.18
ATTTTCACGTGAGTGT | 0.43
GTTAGCACGTGGGAAT | -0.07
GGGTTCACGTGAACGT | 0.46
GTTTTCACGTGCGTCG | 0.21
GGGCTCACGTGAGGTG | 0.36
TTATGCACGTGGGAGA | -0.19
GGTAACACGTGATGTA | 0.15
ATTGGCACGTGCAATG | -0.23
TGAGGCACGTGGAGGC | -0.08
TGTTACACGTGTCCGT | 0.13
GCTGTCACGTGGGGCT | 0.03
GGTGACACGTGTGAGG | 0.04
TGGAGCACGTGTGTCA | -0.13
GGTTGCACGTGTAATT | 0.14
TGCTGCACGTGTGATT | 0
TATGGCACGTGCAGGT | -0.03
TAGGGCACGTGGCCGG | -0.24
TGGGTCACGTGGAACA | 0.16
TTGCTCACGTGGGAGA | 0.21
TAGGACACGTGTGGGA | 0.05
GGTAGCACGTGTACAG | -0.05
ATGCACACGTGTAGTG | 0.01

Sequence | relative binding free energy [kcal/mol]
TTAGTCACGTGCAGGT | -0.01
GTTACCACGTGATGGT | 0.11
CTCAGCACGTGTGGTG | -0.07
AGGTCCACGTGGTCGG | -0.15
TAGAGCACGTGTCTTT | -0.03
TTGCGCACGTGGGTCG | -0.36
AGTTTCACGTGAACTG | 0.33
GGGGTCACGTGCCGGG | 0.12
ATGTTCACGTGCTGTT | 0.18
TTTGACACGTGGTGTC | 0.02
GGGCTCACGTGATAAT | 0.5
GGTTACACGTGGAGTT | 0.27
TTAGACACGTGATGGT | 0.1
GTTTTCACGTGCTTGT | 0.25
TTTTCCACGTGGGCTT | 0
GTTGACACGTGGTGTT | 0
ACTTACACGTGTTTTG | 0.19
TCAGGCACGTGGGCGA | -0.11
GGTGGCACGTGTTGTT | 0.04
CTGTGCACGTGCTAGG | -0.06
AATAGCACGTGGGGCA | -0.29
TAATTCACGTGGTTTT | 0.22
AGGCGCACGTGAGTTG | 0.11
GTTATCACGTGATAGC | 0.35
GGTGACACGTGATTAG | 0.07
TGGATCACGTGTACGG | 0.27

Sequence | relative binding free energy [kcal/mol]
CAGGTCACGTGTGTTG | 0.14
CTGGACACGTGGGGGC | -0.05
TTTTTCACGTGACCTG | 0.37
AATGGCACGTGTTCTT | -0.15
GGTGTCACGTGTACTT | 0.24
TTTTTCACGTGAGGCG | 0.43
GGAGGCACGTGTGCAT | 0.01
GCGTTCACGTGTTTAT | 0.39
GGACTCACGTGTGTAG | 0.29
GAGGTCACGTGTATAT | 0.25
GGGTTCACGTGAGTCT | 0.33
GTTTGCACGTGAGCGG | 0.19
ATTAGCACGTGAGTAT | 0.1
TTGAGCACGTGATGGA | 0.02
ATGTGCACGTGGCGAT | -0.07
TAATTCACGTGGCTTG | 0.21
GTAATCACGTGATGGG | 0.32
GGTAACACGTGTGGTC | 0.16
AGTCTCACGTGTGGGA | 0.19
GGTGCCACGTGTAGCG | 0.04
CATTTCACGTGGAAGG | 0.26
CCTTTCACGTGTTGTT | 0.3
GGCATCACGTGTGGTT | 0.3
GTGGACACGTGGGCGG | -0.17
TGTTTCACGTGTTGCG | 0.21
GTATACACGTGGGTGG | 0.02

Sequence | relative binding free energy [kcal/mol]
GAGGTCACGTGGTAAT | 0.09
GTTGGCACGTGTGGCA | 0.08
CTAGTCACGTGGTGCG | -0.02
TGAGGCACGTGGTGAA | -0.24
TAGAACACGTGGGAGG | -0.06
AGTTTCACGTGTCTCG | 0.3
TCTTTCACGTGCGTTG | 0.16
GCTGGCACGTGGGAGC | -0.14
GGCCGCACGTGTGTTA | 0.06
TGGATCACGTGTTGTC | 0.14
TCGTTCACGTGTTAGG | 0.35
TTTAGCACGTGGTAAG | -0.05
TGCATCACGTGTATGT | -0.06
TATAGCACGTGGTAGA | -0.22
TGACTCACGTGTTAGT | 0.24
CGTTTCACGTGGGAAG | 0.24
AGTGTCACGTGAAAGG | 0.29
GGTAGCACGTGATGTA | 0.06
AGTACCACGTGGTTGA | -0.08
TCTTTCACGTGTCATG | 0.23
AGGGTCACGTGGGAGG | 0.03
GGTAGCACGTGGGTGC | -0.2
